Measured values as given in the RNAGym collection of RNA variant scans (doi:10.7554/elife.90254).
The source gives no read counts; variants with many changes may rest on few reads.

B1: LINE1-mini (parent)
chain: GGCAGAGCUCAACACAGCGUGGCAAAGUGGCUGUGGCUAGACUGCC

Variants of: B1
Assay: self-cleavage, relative activity (ratio to wild type); higher = more cleavage; in vitro, sequencing; the parent is a self-cleaving ribozyme

| Variant | self-cleavage |
| --- | --- |
| C13A G17C C42A | 0.05 |
| C15U A16G G22C U38A | 0.02 |
| G21C A26G G36U | 0.02 |
| U20A A26U G29A G33C G36C | 0.01 |
| G5C G7A C18A | 0.08 |
| C3U G5C A14C U28G | 0 |
| G1A C10U A14G G44U | 0.05 |
| G2A C3U G29C C37A C46A | 0.41 |
| G5U A6G G22A | 0.08 |
| G7A C8U G30A | 0.46 |
| C3U C18U G33C G36C | 0.02 |
| U28G U34A A39U | 0.08 |
| A12G C18A U20C U28A A41C | 0.01 |
| U9C G21C G27A C45U | 0.03 |
| G5C C13A U20A U34G | 0.02 |
| C8A U20C G30U | 0.08 |
| G7A U20C A26G | 0.05 |
| G5C U20A C45G C46A | 0.02 |
| G29U G40A C42U | 0.17 |
| A11U A41G C45A | 0.01 |
| C10A C15A G19A U28A G35C | 0.01 |
| A14U G19U G30A | 0.09 |
| A4U C10A G21C C45U | 0 |
| A16U G17A C37U | 0.54 |

| Variant | self-cleavage |
| --- | --- |
| A6C G17A C18U C31G | 0.02 |
| G5U A11G C23A C42U | 0.05 |
| A4G A14U C18A | 0.02 |
| C3U C18A U34A | 0.07 |
| G2C U32G G33A | 0.03 |
| C8G G19U G21A | 0.04 |
| A14U C18G G19U G30U U43C | 0.03 |
| A12G C37A G40U G44U | 0.14 |
| A11C C23A G27A U28G | 0.01 |
| C3A A12U G19C C46A | 0.07 |
| G5U A24C G44U | 0.04 |
| G2U A39U C45U | 0.02 |
| G27U G40A A41C | 0.27 |
| C13A A14C G36C U43G | 0 |
| A11C C18U G22A G30A | 0.04 |
| C8A C15A C31G | 0.18 |
| A6C A11U C13G U20A | 0.04 |
| G2U C18G G19C G29A G36C | 0.08 |
| C3A A11C G33U C37G | 0.09 |
| A14G C15G G35U | 0.02 |
| G19U G22C C23A | 0.28 |
| A12C A26G G36U | 0.02 |
| C10A A11C A14G G19C G33C A39C | 0.01 |
| G7C C18G C45G C46U | 0.04 |

| Variant | self-cleavage |
| --- | --- |
| G2A C8U G40A | 0.39 |
| C10G U20A G40A | 0.01 |
| G7U C13A G19A | 0.05 |
| A6U G29A G30A C45A | 0.84 |
| U9A C13U G30C A39U C45A | 0.02 |
| C10A A16U G40U | 0 |
| G21A A25C G30A | 1.64 |
| A11U A25G G44C | 0.05 |
| G27C G40A G44A | 0.09 |
| G1C C18G A25U U34A A41C | 0.01 |
| G7U G17U G22C A24G C45A | 0.03 |
| C13A A14U G36A C37G | 0.08 |
| A6G G22A A25G U32A | 0.07 |
| U9A G22U C37A C45U C46A | 0.99 |
| C8U G19A A24U G27C C31G | 0.08 |
| C8U A11U A12C | 0.01 |
| A6C C13U C18A | 0.04 |
| A11U C13G U32C | 0.01 |
| C8G G22C C23G A25G C45U | 0.06 |
| G7U G21A U38G | 0.02 |
| C15U G17U C42U | 0.12 |
| C8G A11G C13U C15A G21U | 0.03 |
| A4U U20G C37G | 0.02 |
| C18U C37A A39U | 0.11 |

| Variant | self-cleavage |
| --- | --- |
| A6G G22U A24U G27U G40U | 0.12 |
| G2C C10U G22U U34A C46U | 0.04 |
| G22A G35U U38A | 0.09 |
| G5A C10A A14U | 0.04 |
| G1A C10A G22U G33U | 0.05 |
| C3A A12U C18A | 0.62 |
| C13G A14C C18G G33A | 0.05 |
| C3U G7U G21U G29C C45U C46G | 0.13 |
| A16U G40U U43C | 0.03 |
| A4U C13A U32G | 0.03 |
| A6C G27U G29U | 0.1 |
| A26G A41C U43A | 0.03 |
| C13G U20C G36U C37G | 0.03 |
| A4C C8A A41G | 0.39 |
| C3U A26U C37G | 0.06 |
| U20G C31G G40C | 0.01 |
| C3U A6G C8U U20G | 0.31 |
| A4U G5U G7C | 0.04 |
| G5A G27C U32C A41U C45U | 0.02 |
| A4C A26G G40U C45A | 0.03 |
| U9C G17C G22C G27U U32A G36C A39U | 0.01 |
| C8U A12G G17C A24C A25C G35U C42U | 0.02 |
| G1U A16C A25C | 0.12 |
| G19A G29C C31G | 0.55 |

| Variant | self-cleavage |
| --- | --- |
| G2A C10U C13G A14U A16C | 0.04 |
| G35U U38C G44C C45A C46G | 0.07 |
| U20C G30C G35U U38G | 0.04 |
| A26U G27U U28C G29A | 0.45 |
| A6U G21U A24G A25C G27U | 0.07 |
| G2U C10A A24C G30C U32A | 0.01 |
| A6C G7C U32G C46A | 0.09 |
| C8U C10A A26U G30U G35C U38G | 0.01 |
| A4C C23G G35U G40A C42G | 0.08 |
| G1C G5C C10G A16G C18U U34C | 0.01 |
| G1U C8U G33A | 0.22 |
| G36A A39U G40U | 0.03 |
| A14C A41U G44U | 0.11 |
| A14C G30A U38G | 0.02 |
| G1A G5U C23A | 0.08 |
| C10A G36A G44A | 0.11 |
| C13A U34A G36U | 0.05 |
| A12C G29A C31U | 0.02 |
| C10U A12U G33A | 0.02 |
| G5A G21U G29U C42U | 0.89 |
| G17C G29U G30A C37G | 0.06 |
| U9C C15U A24U G36U | 0.06 |
| G5U G7U A14U C45A | 0.33 |
| C8G A14C G19A C31U U34G G36A C46G | 0.01 |

| Variant | self-cleavage |
| --- | --- |
| U9G A16G G44U | 0.02 |
| C3A G22U C31A G44U | 0.14 |
| G2A C10G G40C | 0.05 |
| G27A U28C G33C | 0.16 |
| C13A U43A C45A | 0.15 |
| U20A U43C C46A | 0.02 |
| A14U A16C G30U | 0.08 |
| G1U A25C G30A C45G | 0.05 |
| G7U A14G U38G | 0.04 |
| C10A C13G G36A G40C | 0.01 |
| C18U G22U G44U | 0.11 |
| G7C G17U A26C | 0.39 |
| G1C A6G C18A | 0.03 |
| A14C A16C C23G A41C | 0.03 |
| C10A G22U G36C | 0.03 |
| C15U G22U C23A U43A | 0.01 |
| A6C U34C U38G G44U | 0.01 |
| G5A C23G A25G G35C U38G | 0 |
| A14C A24G G35A C37A G40A | 0.01 |
| G2C C3A A11G A16U G22A | 0.02 |
| C3A A14G G19U G22C | 0.04 |
| A6C C8G C18A G33U | 0.01 |
| C10U G30C G35A | 0.09 |
| A25U G33U G35C | 0.12 |

| Variant | self-cleavage |
| --- | --- |
| G5A G27C U38A | 0.13 |
| G5C A25C G27U | 0.01 |
| U9G C15U G19U U38A | 0.07 |
| C8U C13G C15A G35A | 0.13 |
| G7C A25G C31A U38A | 0.03 |
| G5U A16G G40U | 0 |
| G5U A14C C37G | 0.06 |
| G2C C10U U34G U43C C45G C46G | 0.01 |
| C15G G40A U43A | 0 |
| C3G A6G G17A U28C G29U | 0.04 |
| G2A A11C C13A G22A A39C C45G | 0.01 |
| A4U C8A C46A | 0.59 |
| U9C C13A G33C | 0.02 |
| U20G G21U G30C G33U | 0.04 |
| G17A U20C G21C A26G G30U | 0.03 |
| U28A G30C G35C | 0.02 |
| G2U A16G U20G A39G | 0.01 |
| A14G G17U G44A | 0.05 |
| C10A A12U C42A | 0.02 |
| G17A A26U U28G | 0.08 |
| G21A G29A G35U | 0.18 |
| C3U A26C U28A C45U | 0.15 |
| G7A G19C G27A | 0.04 |
